Measured values as given in the antibiotic and cytotoxicity screens of Wong et al. (2023).
The list shows a part of the results.

These compounds were tested on HepG2 (assay: cytotoxicity call (relative viability < 0.9)). Conditions: 10 µM.
For `Cc1noc(C)c1S(=O)(=O)Nc1ccc2c(c1)CC(=O)N([C@@H](C)CO)C[C@@H](C)[C@H](CN(C)S(=O)(=O)c1cn(C)cn1)O2`, the cytotoxicity call was “inactive”.
With `CO[C@@H](CN(C)S(=O)(=O)c1ccc(F)cc1)[C@H](C)CN([C@@H](C)CO)S(=O)(=O)c1cccc(Cl)c1` the cytotoxicity call was “inactive”.
`C[C@@H]1CCCCO[C@H](CN(C)C(=O)Nc2ccccc2)[C@H](C)CN([C@@H](C)CO)C(=O)c2cc(NC(=O)Nc3cccc4ccccc34)ccc2O1` was tested, and the cytotoxicity call was “inactive”.
In the case of `C[C@@H]1CN([C@H](C)CO)C(=O)c2cc(NC(=O)c3ccccc3)ccc2O[C@@H](C)CCCCO[C@@H]1CN(C)Cc1ccncc1`, the cytotoxicity call was “inactive”.
In the case of `CN[C@@H]1[C@@H](C)O[C@@H](O[C@H]2[C@H](C)O[C@@H](O[C@@H]3/C(C)=C/C[C@@H]4C[C@@H](C[C@]5(C=C[C@H](C)[C@@H](C(C)C)O5)O4)OC(=O)[C@@H]4C=C(C)[C@@H](O)[C@H]5OC/C(=C\C=C\[C@@H]3C)[C@]54O)C[C@@H]2OC)C[C@H]1OC`, the cytotoxicity call was “active”.
With `C[C@@H]1CN([C@H](C)CO)C(=O)c2cccc(NC(=O)NC3CCCCC3)c2O[C@@H]1CN(C)Cc1ccc(C(F)(F)F)cc1` the cytotoxicity call was “active”.
For `C[C@@H]1CN([C@H](C)CO)C(=O)c2cc(NC(=O)CCN3CCOCC3)ccc2O[C@@H]1CN(C)CC1CC1`, the cytotoxicity call was “inactive”.
In the case of `Cc1cc(C(=O)Nc2cccc3c2O[C@@H](CN(C)C(=O)Nc2ccccc2)[C@H](C)CN([C@@H](C)CO)C3=O)n(C)n1`, the cytotoxicity call was “inactive”.
With `C[C@H](CO)N1C[C@H](C)[C@@H](CN(C)C(=O)NC2CCCCC2)Oc2ccc(NC(=O)C3CC3)cc2CC1=O` the cytotoxicity call was “inactive”.
